Reference: PubChem BioAssay AID881 (National Center for Advancing Translational Sciences (NCATS), 2007)
Values joined by “and” are separate entries in the source; they are usually repeats but may differ in a detail not shown here. Equal values may be shown once. In all, about 110,000 compounds went through this assay and about 610 (0.55%) were called active. This list was built around the results that the source calls inconclusive (neither active nor inactive); the mix of calls is not that of the screen. Calls come from the whole dose curve; as a rule, active = well fitted inhibition curve with a large enough effect; inconclusive = small, poorly fitted or top-dose-only effect; inactive = no such curve, though single readings can be large or run the other way. Potencies of inconclusive entries are doubtful fits and often do not repeat.
% is set by controls: 0 for no effect and ±100 for the full control effect; potency is the fitted concentration of half-maximal effect; tags give direction and shape of the fitted curve.
Note: nearly all actives have a fitted effect of over 60% in size.

Each compound was assayed against Polyunsaturated fatty acid lipoxygenase ALOX15B (Homo sapiens) (UniProt O15296) (assay: qHTS Assay for Inhibitors of 15-hLO-2 (15-human lipoxygenase 2)). Conditions: purified 15hLO-2, xylenol orange hydroperoxide absorbance; activity change, negative = inhibition: at 57.1 µM (top of the series) unless noted.
Chain of UniProt O15296 (O15296 whole entry, looked up): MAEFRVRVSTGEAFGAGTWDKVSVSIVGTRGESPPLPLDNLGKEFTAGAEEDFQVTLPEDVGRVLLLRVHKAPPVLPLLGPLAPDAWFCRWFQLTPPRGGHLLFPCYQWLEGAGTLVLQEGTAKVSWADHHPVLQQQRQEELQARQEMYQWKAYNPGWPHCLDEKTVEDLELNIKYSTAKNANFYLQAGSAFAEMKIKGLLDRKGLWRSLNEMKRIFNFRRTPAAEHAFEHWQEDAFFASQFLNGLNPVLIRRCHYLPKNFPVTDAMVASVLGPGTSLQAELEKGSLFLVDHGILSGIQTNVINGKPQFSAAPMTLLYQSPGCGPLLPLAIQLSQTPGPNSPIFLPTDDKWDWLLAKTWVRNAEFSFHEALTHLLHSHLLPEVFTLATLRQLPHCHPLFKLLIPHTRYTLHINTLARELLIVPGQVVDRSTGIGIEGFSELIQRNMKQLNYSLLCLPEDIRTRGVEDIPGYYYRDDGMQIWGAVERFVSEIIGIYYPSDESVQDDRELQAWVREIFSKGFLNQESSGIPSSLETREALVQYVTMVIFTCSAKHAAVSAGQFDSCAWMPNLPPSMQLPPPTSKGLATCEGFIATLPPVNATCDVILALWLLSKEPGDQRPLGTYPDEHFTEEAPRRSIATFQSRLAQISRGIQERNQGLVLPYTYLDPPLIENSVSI
How it was run: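 Read-out: hydroperoxide product oxidises ferrous iron, measured as xylenol orange complex via the 573-to-405 nm absorbance ratio after 30 min. Reaction: 50 nM enzyme, 15 min compound preincubation, 45 uM arachidonic acid, 90 min RT, Hepes pH 7.5 with Triton X-100.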
For `CC(=O)Oc1cccc(C)c1`, the activity change, negative = inhibition was inactive: -2.87% [at 0.0915 µM].
`CC1CCC2(CC1)NC(=S)N(c1ccccc1)N2` (stereo unspecified) was tested, and the Potency was inconclusive: 6.31 µM [inhibitor, partial curve].
For `COc1ccc(CSCCN)cc1Cl`, the activity change, negative = inhibition was inactive: 21.5% [at 2.29 µM].
In the case of `Cc1ccc(C(=O)Oc2oc(-c3ccco3)nc2C=Nc2ccc(Cl)cc2)cc1`, the Potency is reported as inconclusive: 12.6 µM [inhibitor, partial curve].
For `CN(C)c1ccc(-c2cncnc2NCCN2CCOCC2)cc1`, the “activity change, negative = inhibition” value was inactive: -21.9%.
For `COCCn1c(C)cc(C2=NNC(=Nc3ccccc3F)SC2)c1C`, the Potency was inconclusive: 3.98 µM [inhibitor, full curve].
In the case of `O=C1CC(c2ccccc2)Cc2nc3ncnn3cc21` (stereo unspecified), the “activity change, negative = inhibition” value is reported as inactive: -11.7%.
For `CCOC(=O)CSc1ccc2nnc(-c3cccnc3)n2n1`, the Potency was inconclusive: 39.8 µM [inhibitor, single point].
For `ClC/C=C/CCl`, the “activity change, negative = inhibition” value was inactive: -3.91%.
In the case of `Cc1cc(C(=O)CSc2nn(-c3ccccc3)c(=S)s2)c(C)n1Cc1ccco1`, the Potency is reported as inconclusive: 31.6 µM [inhibitor, single point].
`COc1ccc2c(c1)S/C(=C\C(=O)c1ccncc1)N2C` was tested, and the Potency was inconclusive: 25.1 µM [inhibitor, partial curve].
For `COc1cc(/C=N/Nc2snc(SC)c2C#N)ccc1O`, the Potency was inconclusive: 15.8 µM [inhibitor, partial curve].
For `CC(C)CNC(=O)c1ccc(Cl)c(Cl)c1`, the “activity change, negative = inhibition” value was inactive: -6.93%.
In the case of `COc1cc(/C=C2/CCC/C(=C\c3cc(O)c(OC)c(Cl)c3)C2=O)cc(Cl)c1O`, the Potency is reported as inconclusive: 5.01 µM [inhibitor, partial curve].
In the case of `CC1CCCN(C(=O)CSc2nnc(-c3cccnc3)n2C2CCCCC2)C1` (stereo unspecified), the “activity change, negative = inhibition” value is reported as inactive: 0.151%.
In the case of `O=C1c2sc3nc4ccccc4n3c2C(=O)N1c1ccccc1Cl`, the “activity change, negative = inhibition” value is reported as inactive: -21.5%.
`O=S(=O)(c1ccccc1)c1nc(-c2ccco2)oc1NCc1ccccc1` was tested, and the Potency was inconclusive: 20 µM [inhibitor, single point].
`CCn1cc(C(=O)NCc2ccco2)c(=O)c2cc(S(=O)(=O)N3CCc4ccccc4C3)ccc21` was tested, and the Potency was inconclusive: 12.6 µM [inhibitor, partial curve].
With `O=C1NCCCc2c1oc1ccc(O)cc21` the Potency was inconclusive: 1 µM [inhibitor, partial curve].
`CN(C)c1ccc(/C(=N\O)C(F)(F)F)cc1` was tested, and the “activity change, negative = inhibition” value was inactive: -1.31%.
In the case of `CC(C)C(=O)Nc1cccc(NC(=S)NC(=O)c2ccc([N+](=O)[O-])cc2)c1`, the Potency is reported as inconclusive: 1.26 µM [inhibitor, full curve, poor fit].
For `COc1cc(S(=O)(=O)NCCCN2CCOCC2)ccc1Cl`, the Potency was inconclusive: 12.6 µM [inhibitor, partial curve].
`Cc1ccc(S(=O)(=O)/N=C(/NC(=S)Nc2ccccc2)c2ccccc2)cc1` was tested, and the Potency was inconclusive: 25.1 µM [inhibitor, partial curve].
`Cc1cccc(OCCCCc2c(C)n[nH]c2C)c1` was tested, and the “activity change, negative = inhibition” value was inactive: 26.2%.
`COc1cc(/C=C2/C(=O)ON=C2C)ccc1OCc1ccccc1F` was tested, and the Potency was inconclusive: 2.51 µM [inhibitor, full curve].
In the case of `Cc1ccc(-c2nc3cnccn3c2Nc2c(C)cccc2C)o1`, the Potency is reported as inconclusive: 1.58 µM [inhibitor, full curve].
With `Cc1ccc(C)n1N1C(=O)/C(=C\c2ccc(Cl)cc2)SC1=S` the Potency was inconclusive: 12.6 µM [inhibitor, partial curve].
For `Cn1ccc2cc3c(cc21)CCN3C(=O)Nc1cccnc1`, the Potency was “inactive”.
`O=C(CCn1c(=O)c2ccccc2n(CC(=O)NC2CCCC2)c1=O)NCCc1ccc(Cl)cc1` was tested, and the Potency was inconclusive: 31.6 µM [inhibitor, single point].
`CCN(C(=O)c1coc(=O)c(Br)c1)c1ccc2c(c1)OCO2` was tested, and the Potency was inconclusive: 39.8 µM [inhibitor, single point].
`O=[N+]([O-])c1c(NCCO)cc(Sc2nc3ccccc3s2)c2nonc12` was tested, and the Potency was inconclusive: 7.94 µM [inhibitor, full curve].
With `CCOC(=O)c1c(NC(=S)NC(=O)c2ccc(Cn3cc(Cl)cn3)o2)sc2c1CCC(C)C2` (stereo unspecified) the Potency was inconclusive: 15.8 µM [inhibitor, partial curve].
With `S=C(c1ccc(-c2ccc(Cl)cc2Cl)o1)N1CCCCC1` the Potency was inconclusive: 10 µM [inhibitor, single point].
In the case of `COCCCn1c(SCC(=O)Nc2ccc(C(=O)OC)cc2)nc2ccccc2c1=O`, the “activity change, negative = inhibition” value is reported as inactive: -0.492%.
In the case of `CC(C1OC(C)(C)C(O)C1O)C1CC[C@@]2(C)C3=CCC4C(C)(C)C(=O)CC[C@]4(C)C3CC[C@@]12C` (stereo partly specified), the “activity change, negative = inhibition” value is reported as inactive: -12%.
`CCCN(CCC)S(=O)(=O)c1ccc(NC(=O)Cc2cccs2)cc1` was tested, and the Potency was inconclusive: 25.1 µM [inhibitor, single point].
In the case of `C[C@@H]1C(=O)OC2C[C@@]34[C@H]5C[C@@H](C(C)(C)C)[C@@]36C(O)C(=O)O[C@H]6O[C@@]4(C(=O)O5)[C@]21O` (stereo partly specified), the activity change, negative = inhibition is reported as inactive: 0.104% [at 0.0915 µM].
With `CN(C)c1ccc(C(=C2C=CC(=[N+](C)C)C=C2)c2ccc(N(C)C)cc2)cc1` the Potency was inconclusive: 39.8 µM [inhibitor, single point].
In the case of `S=c1[nH]nc2c3c4c(sc3ncn12)CCCC4`, the Potency is reported as inconclusive: 31.6 µM [inhibitor, single point].
With `Cc1ccc(CNC(=O)c2cn(C3CCCC3)c(=O)c3c2c2ccccc2n3C)o1` the Potency was inconclusive: 1.58 µM [inhibitor, full curve].
In the case of `CCOc1ccc2sc(NS(=O)(=O)c3ccc(OC)c(OC)c3)nc2c1`, the “activity change, negative = inhibition” value is reported as inactive: -4.2%.
`COc1ccc(C(=O)c2sc3nc(-c4ccccc4)ccc3c2N)cc1OC` was tested, and the Potency was inconclusive: 31.6 µM [inhibitor, single point].
With `O=C1C=CC(=O)C2=C1C1c3ccccc3C2c2ccccc21` the Potency was active: 2 µM.
With `COc1ccc(Cn2c3nc4ccccc4nc3c3c(=O)n(Cc4ccco4)cnc32)cc1` the Potency was inconclusive: 12.6 µM [inhibitor, partial curve].
In the case of `CCOc1cc(NC(=S)NCC2CCCO2)c(OCC)cc1NC(=O)c1cccc(C)c1` (stereo unspecified), the Potency is reported as inconclusive: 31.6 µM [inhibitor, partial curve, poor fit].
For `Cc1cc(C)c2oc(-c3ccc(C)c(NC(=S)NC(=O)/C=C/c4ccco4)c3)nc2c1`, the Potency was inconclusive: 12.6 µM [inhibitor, single point].
`CN(C)/C=C/C(=O)c1cccc(Cl)c1` was tested, and the “activity change, negative = inhibition” value was inactive: -0.819%.
With `COc1ccc(-n2nnc3c(=O)n(CC(=O)NCC4CCCO4)cnc32)cc1` (stereo unspecified) the Potency was inconclusive: 1 µM [inhibitor, single point].
`COC(=O)CC1C2(C)CC34OC5(C)O[C@@]6(C7/C(=C(/OC)C(C)C)C(=O)OC(c8ccoc8)[C@@]7(C)C(OC(=O)C(C)C)C(OC)[C@]6(O5)[C@@]13C)C(OC)[C@]4(OC)C2OC(C)=O` (stereo partly specified) was tested, and the “activity change, negative = inhibition” value was inactive: -17.3%.
`Cc1cc(NC(=S)NC(=O)CC(C)C)ccc1Br` was tested, and the Potency was inconclusive: 3.98 µM [inhibitor, full curve].
For `N#C/C(=C\c1ccc(O)c(O)c1)S(=O)(=O)c1ccccc1`, the Potency was inconclusive: 25.1 µM [inhibitor, single point].
With `O=C(Nc1ccccc1)N1CCCN(Cc2ccccc2F)C1` the “activity change, negative = inhibition” value was inactive: 6.17%.
In the case of `O=C(NCCc1ccccc1)c1ccc2nc(-c3ccco3)c(-c3ccco3)nc2c1`, the Potency is reported as inconclusive: 12.6 µM [inhibitor, partial curve].
In the case of `S=c1[nH]c2ccccc2s1`, the Potency is reported as inconclusive: 31.6 µM [inhibitor, partial curve, poor fit] and inconclusive: 35.5 µM [inhibitor, single point].
For `CC(C)(C)c1cc(C(=S)N2CCN(CCO)CC2)cc(C(C)(C)C)c1O`, the “activity change, negative = inhibition” value was inactive: 16.3%.
`OCCCCNc1cccc2ccccc12` was tested, and the Potency was inconclusive: 15.8 µM [inhibitor, partial curve].
With `CN(C)CCC(=O)c1ccc(Cl)cc1` the Potency was inconclusive: 2 µM [inhibitor, full curve].
In the case of `CSc1nc2ccc(S(=O)(=O)NC3CCCCC3)cc2s1`, the “activity change, negative = inhibition” value is reported as inactive: -12.4%.
`O=c1[nH]c2c(s1)C(c1ccccc1)C1C3CCC(C3)C1S2` (stereo unspecified) was tested, and the Potency was inconclusive: 12.6 µM [inhibitor, partial curve].
For `CCOC(=O)c1sc(NC(=O)CSc2nc(C)cc(-c3ccccc3)n2)c(C#N)c1C`, the Potency was inconclusive: 12.6 µM [inhibitor, single point].
`O=C1C2C3C=CC(CO)(O3)C2C(=O)N1c1ccc(-c2ccccc2)cc1` (stereo unspecified) was tested, and the Potency was active: 0.398 µM.
With `CCCCC#Cc1ccccc1CC(=O)Nc1ccccc1` the “activity change, negative = inhibition” value was inactive: -5.19%.
With `COC(=O)c1ccccc1OCC(=O)N1CCN(c2ccc(Cl)cc2)CC1` the Potency was inconclusive: 0.158 µM [inhibitor, full curve, poor fit].
`COc1ccc(NC(=S)Nc2ccc(Oc3ccccc3)cc2)cc1` was tested, and the Potency was inconclusive: 6.31 µM [inhibitor, partial curve].
In the case of `CC(C)CC(=O)NC(NC(=S)Nc1sc2c(c1C#N)CCCC2)C(Cl)(Cl)Cl` (stereo unspecified), the Potency is reported as inconclusive: 20 µM [inhibitor, single point].
In the case of `COC(=O)CN1C(=O)S/C(=C/c2cc(C)n(C)c2C)C1=O`, the Potency is reported as inconclusive: 15.8 µM [inhibitor, partial curve].
With `Cc1cc(=O)oc2c(O)c(O)ccc12` the Potency was inconclusive: 10 µM [inhibitor, partial curve].
With `Cc1ccc2oc(-c3ccccc3)c(C(=O)O)c(=O)c2c1` the “activity change, negative = inhibition” value was inactive: 1.44%.
In the case of `N[C@@]1(C(=O)O)CO[C@H]2[C@H](C(=O)O)[C@H]21`, the activity change, negative = inhibition is reported as inactive: 17.3% [at 0.0915 µM].
For `O=C(NC(=S)N1CCCc2ccccc21)c1ccccc1`, the “activity change, negative = inhibition” value was inactive: -13.6%.
In the case of `COc1ccc(Br)cc1CNC(=O)Nc1cccs1`, the Potency is reported as inconclusive: 20 µM [inhibitor, partial curve].
